Data taken from the supplement of paper PMC10126150.
Sequences with one replicate were seen in a single cluster, so their values are uncertain.

Test system: ATP
Assay: switch fluorescence ratio, 500 uM ATP over buffer (Cy3 cluster intensity, sum of 5 cycles each) (fold (ratio)); higher = stronger signal-on switching upon ATP binding; sequences stand for … in TCGTCGGCAGCGTCAGATGTGTATAAGAGACAGTTTTTTTTTTTTTTTTTTTTTTTTT…TC
Details: aptamer strand: ATP DNA aptamer (quencher-CACCTGGGGGAGTATTGCGGAGGAAGG + anchor), 100 nM annealed; ATP concentration: 500 uM; one replicate
Method in brief: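 Five buffer/ATP imaging cycles were run on Cy3-labelled switching-strand clusters on a modified Illumina MiSeq flow-cell, with NaOH stripping and re-annealing between cycles. In each cycle, clusters annealed to 100 nM quencher-labelled ATP aptamer were imaged in selection buffer, then after 15 min with 500 uM ATP at 22 °C. Per cluster, the fluorescence ratio is summed target-cycle over summed buffer-cycle Cy3 intensity, averaged per switch-domain sequence. Only clusters within 100-1000 RFU were kept.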
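Further: ATP exposure 15 min at 22 °C before imaging.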

Row | Sequence | switch fluorescence ratio
1 | GGGGTGCA | 1.04
2 | TATTGGGATG | 1.17
3 | CAACCATTT | 1.03
4 | GGCTAGCTAG | 1.03
5 | CTAGGACGGT | 0.987
6 | TAAACTGCTT | 0.979
7 | GACAGCGTCT | 1
8 | GATTACTGAT | 1.01
9 | CTCGAACTT | 1.02
10 | AGAGACTGTA | 0.975
11 | ATAGGTTGCT | 0.981
12 | ACGACTTTAA | 0.989
13 | TATACATCAT | 1.04
14 | CATAGCACGG | 1.03
15 | TGATGTGCTT | 1.01
16 | CCGTGGAAGG | 0.994
17 | ATGACCACCG | 1.02
18 | CTTATTGGCA | 1.01
19 | TCAAGCTGGA | 0.923
20 | CGCGCAGGA | 1
21 | TTTTGCAGTT | 0.993
22 | GCGGCGCGGT | 1.03

Row | Sequence | switch fluorescence ratio
23 | CAGAAAAGCG | 1.02
24 | CCGGGCGCTA | 1.72
25 | GAATTACCGG | 1.01
26 | TTACGGATAT | 1.05
27 | TTTTTGGCG | 1.04
28 | AGCGGGG | 0.976
29 | GAACAGCT | 1.04
30 | ACATAGAAGT | 1.03
31 | TCGTTGACAG | 0.936
32 | CTTAGGAAGG | 1.03
33 | GAGGTCAAGT | 0.97
34 | TTGGGCTCAT | 0.974
35 | AGTACATC | 1.03
36 | TTCATTGAAC | 1.05
37 | AGAGCTTGGG | 1.01
38 | ATGCTTGAG | 0.981
39 | GGTATTTCCG | 1.02
40 | TTGAAGAAGC | 1.04
41 | ACGTCCAATG | 1.03
42 | ATGGTTTTGG | 1
43 | TGGGGACAAC | 0.953
44 | TACTGAAAT | 1.06

Row | Sequence | switch fluorescence ratio
45 | TGCAAGATT | 2.65
46 | ACCGTTCGAA | 1.03
47 | TTGAACCCAG | 1.05
48 | GCCGGGTGAC | 1.1
49 | GCTCTTGGGG | 1.01
50 | TGTGGTTAC | 1
51 | TAGCTTTGAT | 0.963
52 | GTTTGCTCCA | 0.988
53 | CGTGGCCGGG | 1
54 | AATCCTGGGG | 1
55 | TACGTGTGAC | 1
56 | GAGCCGAGCT | 0.957
57 | GCCAATATCG | 1.03
58 | TTAATAATCG | 0.994
59 | ACTTCTGGCG | 1.05
60 | GTACTCGTCG | 0.99
61 | TACCGATCGA | 1.08
62 | CGTTCGATGT | 0.964
63 | TATGGGAAT | 0.974
64 | AAGAATTGAC | 1.22
65 | ATGTGGCTTG | 1.01
66 | TTCTCCAGAT | 1.09

Row | Sequence | switch fluorescence ratio
67 | CCATAAGTAG | 1.02
68 | CCGGCGGGAC | 2.3
69 | ATTTTAACC | 0.961
70 | GAATTTTAAA | 0.973
71 | ATTTATGCC | 1.07
72 | GTTTCTTCTC | 1
73 | AAACGGTGCT | 1
74 | CACAGGCTTT | 0.957
75 | TGTGGCATCG | 0.963
76 | ACATTGTTGT | 0.973
77 | AGCGGGTCGT | 1.06
78 | CCGGGCGCG | 1.17
79 | CGAACGTTCA | 1.01
80 | GCGAGCGCTA | 1.1
81 | ATAACGAGAC | 1.69
82 | ACGCGGGAAG | 1.02
83 | TACAATGTGC | 0.972
84 | CAGGAGGTGC | 1.11
85 | CAGATTTTCG | 1.02
